Measured values: PubChem BioAssay AID588855 (National Center for Advancing Translational Sciences (NCATS), 2011)
Hit rate of the full screen: of about 410,000 compounds, about 5,000 (1.2%) were called active. Inconclusive results, whose numbers are uncertain, are shown with a selection of clear calls. The call rests on the fitted dose curve; in most records, active means well fitted inhibition curve with a large enough effect; inconclusive means small, poorly fitted or top-dose-only effect; inactive means no such curve, though single readings can be large or run the other way. A potency beside an inconclusive call is a rough fit, not a confirmed value.

experiment: qHTS for Inhibitors of TGF-b; conditions: HepG2 CAGA-GFP TGF-b/SMAD3 reporter, GFP fluorescence, 18 h, TGF-beta stimulated, 500 pg/mL final; series mostly up to 46.1 µM; activity, negative = inhibition: at the top concentration; further: nearly all actives have a fitted effect of over 65% in size
Method in brief: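 Inhibition of TGF-beta-driven CAGA-GFP reporter expression in HEPG2 cells is measured by cellular GFP fluorescence after 18 h stimulation with 500 pg/mL recombinant TGF-beta in 1% FBS medium at 37 degrees C.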
On the % scale 0 is the no-effect control and ±100 the full control effect; potency means the concentration at half of the fitted maximal effect; tags describe the fitted curve by direction and shape.

Row | SMILES | activity, negative = inhibition | Potency
1 | NCC[C@H](O)C(=O)N[C@@H]1C[C@H](N)[C@@H](O[C@H]2O[C@H](CN)[C@@H](O)[C@H](O)[C@H]2O)[C@H](O)[C@H]1O[C@H]1O[C@H](CO)[C@@H](O)[C@H](N)[C@H]1O | inactive: 2.83% | 
2 | CCOC(=O)C1=C(C)NC(C)=C(C(=O)OCC)C1c1cc2ccc(C)cc2[nH]c1=O | inactive: 0% | 
3 | Cc1ccccc1-c1cc2nc(NCCOc3ccccc3Cl)n(C)c(=O)c2s1 |  | inconclusive: 3.16 µM [inhibitor, partial curve]
4 | Cc1ccc(-n2ncc3c(=O)n(CC(=O)NCc4ccco4)cnc32)cc1 | inactive: 8.07% | 
5 | CCN1C(=O)[C@H]2[C@@H](c3ccc(-c4ccc(F)cc4)c(OC)c3)N3CCCC[C@@]3(C(=O)OC)[C@H]2C1=O |  | inconclusive: 35.5 µM [inhibitor, single point]
6 | Cc1ccc(Nc2nnc(-c3ccc(C)c(S(=O)(=O)N4CCOCC4)c3)c3ccccc23)c(C)c1 | inactive: 16.4% | 
7 | CCCCN1C[C@H](Cc2ccccc2)[C@@H](CC(=O)NCc2ccc(OC)cc2)C1=O |  | inconclusive: 12.6 µM [inhibitor, single point]
8 | CN(C)c1ccc(-c2c(C3C4C=CCCC4(C)C(=O)N3Cc3ccccc3)ccc3ccccc23)cc1 (configuration not stated) |  | inconclusive: 7.94 µM [inhibitor, partial curve, poor fit]
9 | CCOc1ccc(C(=O)c2cn(Cc3ccc(Cl)cc3)c3cc(OC)c(OC)cc3c2=O)cc1 |  | inconclusive: 22.4 µM [inhibitor, single point]
10 | O=C(N/N=C\C=C\c1ccc([N+](=O)[O-])o1)c1cccs1 |  | inconclusive: 11.2 µM [inhibitor, partial curve]
11 | COc1ccc(CC(N)c2csc(Nc3cccc(OC)n3)n2)cc1 (configuration not stated) |  | inconclusive: 20 µM [inhibitor, single point]
12 | CCC(=O)/C=C1/Sc2ccc(OC)cc2N1CC | inactive: -0.801% | 
13 | CCOC(=O)c1ccn(S(=O)(=O)c2ccc(C)cc2)c1-c1ccccc1 |  | inconclusive: 14.1 µM [inhibitor, single point]
14 | COc1cccc(C2CC(c3cccs3)=NN2C(=O)CSc2nc3ccccc3s2)c1OC (configuration not stated) |  | inconclusive: 35.5 µM [inhibitor, single point]
15 | CCc1ccccc1NS(=O)(=O)c1ccc2c(c1)NC(=O)CC(=O)N2 | inactive: 8.32% | 
16 | Cc1cc(F)ccc1S(=O)(=O)Nc1ccc2c(c1)CCCN2C(=O)c1cccs1 |  | active: 15.8 µM

Row | SMILES | activity, negative = inhibition | Potency
17 | COC(=O)c1cnc(NCc2ccc(F)cc2)c2ccccc12 |  | inconclusive: 35.5 µM [inhibitor, single point]
18 | COc1ccc2c(c1)C(=O)N1[C@H]3c4cc(OC)ccc4OC[C@@H]3[C@H](c3ccccc3)[C@]1(C)C(=O)N2 |  | inconclusive: 35.5 µM [inhibitor, partial curve, poor fit]
19 | Nc1c(C(=O)N2CCCC2)sc2nc3c(cc12)CCCCCC3 |  | inconclusive: 3.55 µM [inhibitor, single point]
20 | COc1cc(SC)ccc1C(=O)Nc1ccc(C)cc1C | inactive: -2.08% | 
21 | CCCNC(=O)N1[C@H](c2ccc(C)s2)[C@@H](C)C(=O)[C@@H](C)[C@@H]1c1ccc(C)s1 | inactive: -29.9% | 
22 | Cc1ccc(N2CCN(C(=O)c3cc(-c4ccc(F)cc4)[nH]c3C)CC2C)cc1 (configuration not stated) |  | inconclusive: 35.5 µM [inhibitor, single point]
23 | COc1ccc(CC(=O)NCC(c2ccc(N(C)C)cc2)N2CCOCC2)cc1 (configuration not stated) | inactive: -33.2% | 
24 | CC(C)CC(COCc1cccc(Cl)c1)N1CCN(C(=O)c2ccc(C(F)(F)F)cc2)CCC1=O (configuration not stated) |  | active: 10 µM
25 | CCOC(=O)c1nnn(-c2nonc2N)c1CN1CCc2ccccc2C1 | inactive: -8.47% | 
26 | Cc1ccc(S(=O)(=O)c2nc(S(C)(=O)=O)sc2N2CCC(C(N)=O)CC2)cc1 |  | inconclusive: 6.31 µM [inhibitor, single point]
27 | O=C(Nc1cccn2ncnc12)C(F)(F)F | inactive: 2.69% | 
28 | Clc1ccc2nc(-c3ccccc3)c(Cc3ccsc3)n2c1 | inactive: -25.6% | 
29 | CCOc1ccc(NC(=O)c2c(NCc3ccc(C)o3)sc3c2CCC(C)C3)cc1 (configuration not stated) |  | inconclusive: 35.5 µM [inhibitor, single point]
30 | CCOc1ccc(C(=O)NCC(c2ccc3c(c2)OCO3)N2CCN(c3ccccc3F)CC2)cc1 (configuration not stated) |  | inconclusive: 3.55 µM [inhibitor, full curve, poor fit]
31 | CC(=O)Nc1ccc(S(=O)(=O)NCCCCNS(=O)(=O)c2ccc(NC(C)=O)cc2)cc1 | inactive: -5.49% | 
32 | COc1ccc2[nH]c3c(c2c1)CCN1C(=O)C(CC(=O)NCc2ccco2)C[C@H](C(=O)N2CCCCC2)[C@@]31CCc1ccccc1 (some centres not stated) | inactive: -8.32% | 
